Experimental data from the supplement of paper PMC11876631.
± gives the standard deviation of the averaged measurements. Laboratory Escherichia coli strains with one amino-acid change in an essential protein, pooled on minimal glucose agar with carbenicillin or gentamicin at twice the control MIC (plus kanamycin and chloramphenicol for the plasmids), 48 h. Fold change of barcode share against drug-free plates; higher = less susceptible. Active = above 20 in both replicates (the paper's putatively resistant). '<' = one read or none on drug, '>' = one read or none on a drug-free plate. Shares are relative, so most strains fall below 1 when a few take over. Listed are strains with at least 15 reads on both drug-free plates, and hits; most hits rest on fewer reference reads. Replicate rank correlation about 0.5. Edits are read from barcodes.

B1: ispH; numbered along this chain (parent)
chain: MQILLANPRGFCAGVDRAISIVENALAIYGAPIYVRHEVVHNRYVVDSLRERGAIFIEQISEVPDGAILIFSAHGVSQAVRNEAKSRDLTVFDATCPLVTKVHMEVARASRRGEESILIGHAGHPEVEGTMGQYSNPEGGMYLVESPDDVWKLTVKNEEKLSFMTQTTLSVDDTSDVIDALRKRFPKIVGPRKDDICYATTNRQEAVRALAEQAEVVLVVGSKNSSNSNRLAELAQRMGKRAFLIDDAKDIQEEWVKEVKCVGVTAGASAPDILVQNVVARLQQLGGGEAIPLEGREENIVFEVPKELRVDIREVD
B2: hisD; numbered along this chain (parent)
chain: MSFNTIIDWNSCTAEQQRQLLMRPAISASESITRTVNDILDNVKARGDEALREYSAKFDKTTVTALKVSAEEIAAASERLSDELKQAMAVAVKNIETFHTAQKLPPVDVETQPGVRCQQVTRPVASVGLYIPGGSAPLFSTVLMLATPASIAGCKKVVLCSPPPIADEILYAAQLCGVQDVFNVGGAQAIAALAFGTESVPKVDKIFGPGNAFVTEAKRQVSQRLDGAAIDMPAGPSEVLVIADSGATPDFVASDLLSQAEHGPDSQVILLTPAADMARRVAEAVERQLAELPRAETARQALNASRLIVTKDLAQCVEISNQYGPEHLIIQTRNARELVDSITSAGSVFLGDWSPESAGDYASGTNHVLPTYGYTATCSSLGLADFQKRMTVQELSKEGFSALASTIETLAAAERLTAHKNAVTLRVNALKEQA
B3: gltA; a variant is named by its letters at X, in order (parent)
chain: MADTKAKLTLNGDTAVELDVLKGTLGQDVIDIRTLGSKGVFTFDPGFTSTASCESKITFIDGDEGILLHRGFPIDQLATDSNYLEVCYILLNGEKPTQEQYDEFKTTVTRHTMIHEQXTRLXHAFRRDSHPMAVMCGITGALAAFYHDSLDVNNPRHREIAAFRLLSKMPTMAAMCYKYSIGQPFVYPRNDLSYAGNFLNXMFSTPCEPYEVNPILERAMDRILILHADHEQNASTSTVRTAGSSGANPFACIAAGIASLWGPAHGGANEAALKMLEEISSVKHIPEFVRRAKDKNDSFRLMGFGHRVYKNYDPRATVMRETCHEVLKELGTKDDLLEVAMELENIALNDPYFIEKKLYPNVDFYSGIILKAMGIPSSMFTVXXAMARTVGWXAHWSEMHSDGMKIARPRQLYTGYEKRDFKSDIKR
B4: grpE; numbered along this chain (parent)
chain: MSSKEQKTPEGQAPEEIIMDQHEEIEAVEPEASAEQVDPRDEKVANLEAQLAEAQTRERDGILRVKAEMENLRRRTELDIEKAHKFALEKFINELLPVIDSLDRALEVADKANPDMSAMVEGIELTLKSMLDVVRKFGVEVIAETNVPLDPNVHQAIAMVESDDVAPGNVLGIMQKGYTLNGRTIRAAMVTVAKAKA

Variants of: B1
Assay: barcode share on antibiotic plates over drug-free plates; higher = less susceptible
Settings: with Escherichia coli (laboratory strain); antibiotic: carbenicillin; 2× MIC (3.1 µg/mL)
Protocol: (§1)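 A pool of E. coli strains, each edited to carry one amino-acid change in an essential protein, was grown for 48 h on minimal glucose agar with or without antibiotic; strain barcodes were sequenced; mean of two replicates.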

Row | Variant | fold change of barcode share
1 | V99Q | 1.75 ± 0.78
2 | V99A | 0.339 ± 0.12
3 | V99W | 0.236 ± 0.17
4 | F71W | 0.284 ± 0.022
5 | F71P | 0.285 ± 0.095
6 | L218Q | 0.325 ± 0.18
7 | L218A | 0.327 ± 0.23
8 | V262W | 0.294 ± 0.072
9 | V262Q | 0.48 ± 0.18
10 | I70A | 0.445 ± 0.014
11 | V217W | 0.343 ± 0.085
12 | V217A | 0.412 ± 0.083
13 | V217Q | 0.311 ± 0.092
14 | V220A | 0.169 ± 0.034
15 | V220P | 0.628 ± 0.45

Same assay, conditions: with Escherichia coli (laboratory strain); antibiotic: gentamicin; 2× MIC (MIC 0.45 µg/mL)

Row | Variant | fold change of barcode share
16 | V99Q | < 0.0154
17 | V99W | < 0.0123
18 | L218W | 0.0101 ± 0.0082
19 | L218Q | 13.6 ± 5.2
20 | L218A | 0.0116 ± 0.011
21 | V262P | 0.636 ± 0.82
22 | V262W | 0.0261 ± 0.017
23 | V262Q | 1.01 ± 0.75
24 | I70W | > 90.6 [active]
25 | I70A | < 0.00447
26 | I70Q | 293 [active]
27 | V217W | < 0.0116
28 | V217A | < 0.00645
29 | V217Q | 0.0106 ± 0.0069
30 | V217D | 99.9 [active]
31 | V220A | 0.0194 ± 0.02
32 | V220W | 827 [active]
33 | V220D | > 59 [active]

Variants of: B2
Assay: as above
Settings: with Escherichia coli (laboratory strain); antibiotic: carbenicillin; 2× MIC (3.1 µg/mL)
Protocol: as §1

Row | Variant | fold change of barcode share
34 | L143W | 1.17 ± 0.45
35 | L143P | 4.68 ± 3
36 | L143Q | 0.546 ± 0.22
37 | V142A | 0.712 ± 0.064
38 | V142Q | 0.711 ± 0.11
39 | V142P | 0.519 ± 0.15
40 | L145P | 0.535 ± 0.25
41 | L145D | 0.599 ± 0.26
42 | F139W | 0.477 ± 0.16
43 | F139Q | 0.571 ± 0.13
44 | F139A | 0.597 ± 0.21
45 | F139D | 0.538 ± 0.12
46 | F139P | 0.909 ± 0.03
47 | I329Q | 0.638 ± 0.23
48 | I329W | 0.493 ± 0.018
49 | I329D | 0.578 ± 0.13
50 | I330A | 0.419 ± 0.027
51 | I330W | 0.577 ± 0.095

Same assay, conditions: with Escherichia coli (laboratory strain); antibiotic: gentamicin; 2× MIC (MIC 0.45 µg/mL)

Row | Variant | fold change of barcode share
52 | L143W | 0.0167 ± 0.011
53 | L143P | 0.0193 ± 0.013
54 | L143Q | 0.012 ± 0.0076
55 | M144P | 0.0104 ± 0.0064
56 | M144A | 0.013 ± 0.0055
57 | M144Q | < 0.0105
58 | V142A | 0.013 ± 0.0024
59 | V142Q | 0.0433 ± 0.011
60 | V142P | < 0.0161
61 | L145A | 0.0293 ± 0.014
62 | L145P | 0.0172 ± 0.0048
63 | L145D | 0.0271 ± 0.022
64 | F139W | 0.00421 ± 0.001
65 | F139Q | < 0.00375
66 | F139A | < 0.00508
67 | F139D | 0.00446 ± 0.0017
68 | F139P | 0.0115 ± 0.01
69 | I329Q | 0.0192 ± 0.0068
70 | I329W | < 0.013
71 | I329D | < 0.013
72 | I330A | < 0.01

Variants of: B3
Assay: as above
Settings: with Escherichia coli (laboratory strain); antibiotic: carbenicillin; 2× MIC (3.1 µg/mL)
Protocol: as §1

Row | Variant | fold change of barcode share
73 | IFQIFI | 0.305 ± 0.19
74 | IQMIFI | 0.726 ± 0.2
75 | IPMIFI | 0.954 ± 0.35

Same assay, conditions: with Escherichia coli (laboratory strain); antibiotic: gentamicin; 2× MIC (MIC 0.45 µg/mL)

Row | Variant | fold change of barcode share
76 | IFQIFI | 0.0289 ± 0.012
77 | IQMIFI | 0.00438 ± 0.0034
78 | IFAIFI | < 0.0176
79 | IPMIFI | < 0.00672
80 | IFMIFQ | 0.0363 ± 0.036
81 | IFMIFA | 0.0242 ± 0.021

Variants of: B4
Assay: as above
Settings: with Escherichia coli (laboratory strain); antibiotic: carbenicillin; 2× MIC (3.1 µg/mL)
Protocol: as §1

Row | Variant | fold change of barcode share
82 | M119P | 0.1794 ± 0.00028
83 | M119D | 0.25 ± 0.1
84 | M119A | 0.281 ± 0.19
85 | V190A | 0.271 ± 0.16
86 | V190P | 0.262 ± 0.074
87 | V190Q | 0.182 ± 0.018
88 | V190W | 0.172 ± 0.025
89 | I142A | 0.34 ± 0.15
90 | I142D | 0.42 ± 0.043
91 | I142Q | 0.286 ± 0.054
92 | I142W | 0.249 ± 0.083
93 | I142P | 0.385 ± 0.21
94 | V192D | 0.151 ± 0.016
95 | V192A | 0.174 ± 0.094
96 | V192P | 0.258 ± 0.025
97 | V192Q | 0.285 ± 0.1
98 | V192W | 0.265 ± 0.053
99 | L102W | 0.205 ± 0.069
100 | L102D | 0.1826 ± 0.00098

Same assay, conditions: with Escherichia coli (laboratory strain); antibiotic: gentamicin; 2× MIC (MIC 0.45 µg/mL)

Row | Variant | fold change of barcode share
101 | M119P | < 0.00649
102 | M119D | < 0.00543
103 | M119A | 0.00909 ± 0.0038
104 | V190A | 0.00477 ± 0.0027
105 | V190D | < 0.0206
106 | V190W | < 0.00301
107 | I142A | < 0.00645
108 | I142D | < 0.00805
109 | I142Q | 0.00755 ± 0.0058
110 | I142W | 0.00809 ± 0.0089
111 | I142P | 0.00451 ± 0.0018
112 | I99P | < 0.0142
113 | I99Q | < 0.0143
114 | I99A | < 0.0132
115 | V192A | 0.0176 ± 0.014
116 | V192P | 0.00591 ± 0.0034
117 | V192Q | 0.00418 ± 0.0025
118 | V192W | 0.0049 ± 0.0027
119 | L102Q | < 0.0149
120 | L102W | < 0.00576
